These results are taken from the BET-seq Pho4 binding data (Le et al. 2018).

The other results are listed elsewhere or left out. Values were computed here from the reads of four pooled replicates and scatter widely.

The assay concerns the target T1, Pho4 (S. cerevisiae) (UniProt P07270).
T1 sequence: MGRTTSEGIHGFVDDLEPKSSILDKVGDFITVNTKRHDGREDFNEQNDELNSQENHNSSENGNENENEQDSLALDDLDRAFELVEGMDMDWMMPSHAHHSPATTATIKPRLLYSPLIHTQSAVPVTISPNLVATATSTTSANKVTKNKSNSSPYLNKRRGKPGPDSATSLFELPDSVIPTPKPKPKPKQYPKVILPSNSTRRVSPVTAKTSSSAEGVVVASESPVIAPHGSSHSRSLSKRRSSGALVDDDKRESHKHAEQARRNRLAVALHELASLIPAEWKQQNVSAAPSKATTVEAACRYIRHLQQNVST
Nature of the assay: relative binding free energy (BET-seq); higher = weaker binding. Conditions: reference: library average.
As to TGAGACACGTGGGGTG, the “relative binding free energy” value worked out at 0 kcal/mol.

For CATCGCACGTGGGGGT, the “relative binding free energy” value was -0.36 kcal/mol.

As to GGCAGCACGTGTCTGG, the “relative binding free energy” value turned out to be 0.1 kcal/mol.

For the sequence TCGTTCACGTGTTTTG, the “relative binding free energy” value came to 0.31 kcal/mol.

As to CGGTGCACGTGCTGGT, the “relative binding free energy” value is -0.01 kcal/mol.

TTGCTCACGTGTATAT: the “relative binding free energy” value amounted to 0.21 kcal/mol.

TGCGGCACGTGAGTAG: the “relative binding free energy” value was -0.02 kcal/mol.

As to GTAGCCACGTGTATTG, the “relative binding free energy” value was found to be 0.02 kcal/mol.

ATGGGCACGTGGAGGG: the “relative binding free energy” value was -0.19 kcal/mol.

Turning to CGTGCCACGTGTGGGT, the “relative binding free energy” value was found to be 0.04 kcal/mol.

Turning to TAGTGCACGTGTTGAC, the “relative binding free energy” value worked out at 0.06 kcal/mol.

In the case of AATGTCACGTGACGTT, the “relative binding free energy” value came out at 0.15 kcal/mol.

Turning to TAATTCACGTGGACGT, the “relative binding free energy” value stood at 0.19 kcal/mol.

On to AACGTCACGTGTTTTT, for which the “relative binding free energy” value was 0.06 kcal/mol.

GCAGTCACGTGAATGG: the “relative binding free energy” value was 0.42 kcal/mol.

Take AGTCACACGTGGTGGG: the “relative binding free energy” value is 0.01 kcal/mol.

Regarding TTAAGCACGTGCAGTG, the “relative binding free energy” value was -0.26 kcal/mol.

On to TAGTGCACGTGTTTTG, for which the “relative binding free energy” value is -0.04 kcal/mol.

Consider TTGGACACGTGAGGCG, for which the “relative binding free energy” value was found to be 0.24 kcal/mol.

As to GGGCGCACGTGGGTGC, the “relative binding free energy” value was -0.33 kcal/mol.

As for TTGAGCACGTGCAGTG, the “relative binding free energy” value was -0.08 kcal/mol.

Take CTTTGCACGTGGTGTT: the “relative binding free energy” value is -0.06 kcal/mol.

For ATTTTCACGTGAAGTA, the “relative binding free energy” value came out at 0.55 kcal/mol.

For the sequence CGGTGCACGTGTGTAG, the “relative binding free energy” value came to 0.12 kcal/mol.

With GATGTCACGTGCGGGG, the “relative binding free energy” value is 0.19 kcal/mol.

For the sequence ATTAACACGTGTTTGA, the “relative binding free energy” value is -0.01 kcal/mol.

As for GATATCACGTGATGGA, the “relative binding free energy” value turned out to be 0.32 kcal/mol.

Regarding GAATTCACGTGGTTCG, the “relative binding free energy” value was determined as 0.29 kcal/mol.

Consider AGTTTCACGTGGGCCG, for which the “relative binding free energy” value amounted to 0.19 kcal/mol.

For the sequence GTTCGCACGTGAGATT, the “relative binding free energy” value is 0.26 kcal/mol.

As for CTGGACACGTGGGAGA, the “relative binding free energy” value is -0.09 kcal/mol.

Take GTTTGCACGTGCGGTT: the “relative binding free energy” value came to 0.04 kcal/mol.

Take GTAGGCACGTGAGATT: the “relative binding free energy” value came out at 0.23 kcal/mol.

Consider TGAGACACGTGGGTTA, for which the “relative binding free energy” value was -0.28 kcal/mol.

Regarding CTGGTCACGTGGCATA, the “relative binding free energy” value came to 0.12 kcal/mol.

Regarding ATCTCCACGTGGGGGT, the “relative binding free energy” value is -0.21 kcal/mol.

Regarding GGTTACACGTGGGATA, the “relative binding free energy” value was 0.08 kcal/mol.

For the sequence CATTCCACGTGGTGGG, the “relative binding free energy” value is -0.02 kcal/mol.

In the case of TCAGGCACGTGGGACG, the “relative binding free energy” value is -0.1 kcal/mol.

As to AATGACACGTGTGGCG, the “relative binding free energy” value came out at 0.04 kcal/mol.

For TGTCTCACGTGATGGT, the “relative binding free energy” value came to 0.33 kcal/mol.

As to TGTGGCACGTGGGAGT, the “relative binding free energy” value is -0.17 kcal/mol.

Turning to TGCGTCACGTGCGGTT, the “relative binding free energy” value turned out to be 0.11 kcal/mol.

Regarding TATTGCACGTGCAGGG, the “relative binding free energy” value is -0.17 kcal/mol.

With TATATCACGTGGGCGG, the “relative binding free energy” value worked out at 0.03 kcal/mol.

As to CGTGTCACGTGATAGT, the “relative binding free energy” value was 0.21 kcal/mol.

GCTCACACGTGTTTGG: the “relative binding free energy” value was 0.13 kcal/mol.

Regarding TTCTTCACGTGTTGGA, the “relative binding free energy” value was determined as 0.26 kcal/mol.

With TGGCTCACGTGTTGGT, the “relative binding free energy” value came out at 0.23 kcal/mol.

Turning to TGAAGCACGTGGTTTA, the “relative binding free energy” value is -0.14 kcal/mol.

For TGGTACACGTGCAGTG, the “relative binding free energy” value is -0.04 kcal/mol.

Take CGGGTCACGTGGGTTG: the “relative binding free energy” value stood at 0 kcal/mol.

In the case of TTCGACACGTGGGTAG, the “relative binding free energy” value was -0.18 kcal/mol.

On to GGAGGCACGTGTTGCA, for which the “relative binding free energy” value is -0.11 kcal/mol.

Regarding TGATTCACGTGTACGT, the “relative binding free energy” value was 0.2 kcal/mol.

On to CGGGTCACGTGATGCT, for which the “relative binding free energy” value was 0.21 kcal/mol.

Turning to TGGGTCACGTGTTAAG, the “relative binding free energy” value stood at 0.04 kcal/mol.

GAAGTCACGTGTGGAG: the “relative binding free energy” value turned out to be 0.18 kcal/mol.

With GATTGCACGTGTGGTG, the “relative binding free energy” value was determined as 0.2 kcal/mol.

For TTACTCACGTGGAGTT, the “relative binding free energy” value amounted to 0.27 kcal/mol.

With GACAGCACGTGGTGTG, the “relative binding free energy” value is -0.07 kcal/mol.

Regarding ATGGCCACGTGGGATT, the “relative binding free energy” value was -0.12 kcal/mol.

As to CGCGTCACGTGGGAGG, the “relative binding free energy” value was determined as 0.01 kcal/mol.

For TTTACCACGTGGTAAG, the “relative binding free energy” value was -0.08 kcal/mol.

As to TGCCACACGTGGGTGG, the “relative binding free energy” value is -0.09 kcal/mol.

Regarding GGGGGCACGTGAGATG, the “relative binding free energy” value is 0.22 kcal/mol.

In the case of GGGGACACGTGGTGAC, the “relative binding free energy” value is -0.06 kcal/mol.

On to TAACGCACGTGAGTGG, for which the “relative binding free energy” value was found to be 0.04 kcal/mol.

On to GGTTACACGTGATAAG, for which the “relative binding free energy” value stood at 0.24 kcal/mol.

For the sequence GTAAACACGTGGAGTT, the “relative binding free energy” value is 0.12 kcal/mol.

With ATGTGCACGTGAAGTG, the “relative binding free energy” value is 0.16 kcal/mol.

With CAGGGCACGTGTGTCG, the “relative binding free energy” value amounted to 0.01 kcal/mol.

CTGGGCACGTGTGGGA: the “relative binding free energy” value is -0.08 kcal/mol.
